According to the supplement of paper PMC10670038:
Where “and” joins values, the source holds several entries; their conditions need not be identical. Equal entries are not always repeated. Structures can show the parent of a compound that is named as a salt. ± gives the standard deviation of the averaged measurements. Over roughly 2,000 compounds, “relative cell viability vs DMSO, compound + 0.2 uM CuET” has its median near 1; the lowest 2% begin near 0.25. The list shows a part of the results.

Tested on: TE10
Assay: relative cell viability vs DMSO, compound + 0.2 uM CuET (fraction); TE10 is an esophageal squamous carcinoma line; higher = less cytotoxic
Conditions: 2 µM; co-treatment: CuET (bis(diethyldithiocarbamate)copper) 0.2 uM; 48 h
Experimental: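 TE10 ESCC cells (1,000/well, 384-well plates) were treated with Selleck bioactive library compounds at 2 uM combined with 0.2 uM CuET (copper diethyldithiocarbamate) for 48 h. Viability was read by CellTiter-Glo and expressed relative to DMSO wells. Two technical replicates (A, B).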

Row | SMILES | relative cell viability
1 | O=C1Cc2cc(CCN3CCN(c4nsc5ccccc45)CC3)c(Cl)cc2N1 [Ziprasidone HCl] | 1.542 ± 0.0026
2 | COC(=O)CCc1ccc(OCC(O)CNC(C)C)cc1 (configuration not stated) [Esmolol HCl] | 1.1 ± 0.094
3 | COc1cc(C(=O)NC2CCN(C)CC2)ccc1Nc1ncc2c(n1)N(C1CCCC1)CC(F)(F)C(=O)N2C | 0.779 ± 0.0097
4 | O=C(NCc1cccc(O)c1)Nc1nc(-c2ccncc2)cs1 | 1.11 ± 0.063
5 | CN1C(C(=O)Nc2ccccn2)=C(O)c2ccccc2S1(=O)=O [Piroxicam] | 1.02 ± 0.064
6 | COc1c(C)c2c(c(O)c1C/C=C(\C)CCC(=O)OCCN1CCOCC1)C(=O)OC2 [Mycophenolate Mofetil] | 1.01 ± 0.074
7 | NCCS [Cysteamine HCl] | 1.19 ± 0.13
8 | COCCOC(=O)C1=C(C)NC(C)=C(C(=O)OC(C)C)C1c1cccc([N+](=O)[O-])c1 (configuration not stated) [Nimodipine] | 0.99622 ± 0.00012
9 | O=C(O)c1ccc(-n2nc(-c3ccccc3O)nc2-c2ccccc2O)cc1 [Deferasirox] | 0.87 ± 0.041
10 | C[C@H]1COC2(CCN(c3nc(=O)c4cc(C(F)(F)F)cc([N+](=O)[O-])c4s3)CC2)O1 (racemic) [BTZ043 Racemate] | 1.02 ± 0.019
11 | CC1(C)[C@@H](O)CC[C@]2(C)[C@H]3C(=O)C=C4[C@@H]5C[C@@](C)(C(=O)O)CC[C@]5(C)CC[C@@]4(C)[C@]3(C)CC[C@@H]12 [Enoxolone] | 1.12 ± 0.037
12 | CC1(C)CC(=O)c2c(C(F)(F)F)nn(-c3ccc(C(N)=O)c(N[C@H]4CC[C@H](OC(=O)CN)CC4)c3)c2C1 | 0.804 ± 0.018
13 | COc1cc2c(cc1OC)[C@@H]1Cc3ccc(OC)c(OC)c3CN1CC2 [Rotundine] | 1.13 ± 0.047
14 | CN1CCN(Cc2ccc(NC(=O)Nc3ccc(Oc4cc(NC(=O)C5CC5)ncn4)cc3)cc2C(F)(F)F)CC1 | 0.7858 ± 0.0025
15 | O=C(CCCN1CCC(O)(c2ccc(Cl)cc2)CC1)c1ccc(F)cc1 [Haloperidol] | 1.08 ± 0.08
16 | Cc1ccc(C)c(OCCCC(C)(C)C(=O)O)c1 [Gemfibrozil] | 1.04 ± 0.059
17 | O=C(O)C[C@H](O)C[C@H](O)/C=C/c1c(C2CC2)nc2ccccc2c1-c1ccc(F)cc1 [Pitavastatin Calcium] | 0.8 ± 0.035
18 | Cc1ccc(Sc2ccccc2N2CCNCC2)c(C)c1 | 0.934 ± 0.039
19 | CN1CCC(CNc2ccc3ncc(-c4cccc(OC(F)(F)F)c4)n3n2)CC1 [SGI-1776 free base] | 0.9705 ± 0.006
20 | NCC(=O)CCC(=O)O [5-Aminolevulinic acid HCl] | 0.962 ± 0.0066
21 | C[C@H](NC(=O)CCc1nc2ccccc2c(=O)[nH]1)c1ccccc1 | 1.11 ± 0.14

Row | SMILES | relative cell viability
22 | CC(C[N+](C)(C)C)OC(N)=O (configuration not stated) [Bethanechol chloride] | 1.06 ± 0.21
23 | COc1ccc(C[C@H](NC(=O)[C@H](C)NC(=O)CN2CCOCC2)C(=O)N[C@@H](Cc2ccccc2)C(=O)[C@@]2(C)CO2)cc1 | 0.198 ± 0.0095
24 | Cc1ccc2nc(NCCN)c3ncc(C)n3c2c1 | 1.02 ± 0.043
25 | Cc1c(NC(=O)OC[C@@H]2COCCN2)cn2ncnc(Nc3ccc4c(cnn4Cc4cccc(F)c4)c3)c12 | 1.17 ± 0.1
26 | CC(=O)c1cc([N+](=O)[O-])c(Sc2ccc(F)cc2F)s1 | 0.566 ± 0.046
27 | COc1ccc([C@@H]2Sc3ccccc3N(CCN(C)C)C(=O)[C@@H]2OC(C)=O)cc1 [Diltiazem HCl] | 1.13 ± 0.044
28 | Cc1cn([C@H]2C[C@H](N=[N+]=[N-])[C@@H](CO)O2)c(=O)[nH]c1=O [Zidovudine] | 1.12 ± 0.085
29 | C=CCc1ccc(O)c(-c2cc(CC=C)ccc2O)c1 [Magnolol] | 1.02 ± 0.057
30 | NS(=O)(=O)Cc1noc2ccccc12 [Zonisamide] | 1.24 ± 0.04
31 | Cc1cnc(-c2cnc(NCCNc3ccc(C#N)cn3)nc2-c2ccc(Cl)cc2Cl)[nH]1 | 1.12 and 1.36
32 | CCCNC(C)C(=O)Nc1c(C)csc1C(=O)OC (configuration not stated) [Articaine HCl] | 1.13 ± 0.016
33 | CNCc1ccc(-c2[nH]c3cc(F)cc4c3c2CCNC4=O)cc1 | 1.3 ± 0.098
34 | CC(=O)C1=C(O)C=C2Oc3c(C(C)=O)c(O)c(C)c(O)c3C2(C)C1=O (single isomer, unassigned; (+)) [(+)-Usniacin] | 1.11 ± 0.018
35 | CCNC(=O)c1noc(-c2cc(C(C)C)c(O)cc2O)c1-c1ccc(CN2CCOCC2)cc1 | 0.626 ± 0.052
36 | O=C(O)c1cc2cccc([N+](=O)[O-])c2[nH]1 | 1.07 ± 0.012
37 | COc1ccc(CCc2nc3cc(-c4c(C)noc4C)ccc3n2C[C@H](C)N2CCOCC2)cc1Cl | 0.842 ± 0.032
38 | Cc1nc2ccc(NC(=O)Nc3ccnc4cccnc34)cc2o1 | 1.17 ± 0.028
39 | Oc1nc(-c2ccc(C(F)(F)F)cc2)nc2c1CSCC2 | 1.28 ± 0.055
40 | NC1=NCC2c3ccccc3Cc3ccccc3N12 (configuration not stated) [Epinastine HCl] | 1.22 ± 0.0069
41 | NC(=O)N1c2ccccc2CC(=O)c2ccccc21 [Oxcarbazepine] | 1.19 ± 0.079
42 | CC1(C)O[C@@H]2[C@@H](CO[C@@]3(COS(N)(=O)=O)OC(C)(C)O[C@@H]23)O1 [Topiramate] | 1.43 ± 0.061
